T1: human B7H3 on A498 cells (human, UniProt Q5ZPR3 29-534)
T1 construct: Endogenous B7H3 of A498 human kidney carcinoma cells; also called B7H3 positive A498 cells; human B7H3+ A498 cells
T1 sequence: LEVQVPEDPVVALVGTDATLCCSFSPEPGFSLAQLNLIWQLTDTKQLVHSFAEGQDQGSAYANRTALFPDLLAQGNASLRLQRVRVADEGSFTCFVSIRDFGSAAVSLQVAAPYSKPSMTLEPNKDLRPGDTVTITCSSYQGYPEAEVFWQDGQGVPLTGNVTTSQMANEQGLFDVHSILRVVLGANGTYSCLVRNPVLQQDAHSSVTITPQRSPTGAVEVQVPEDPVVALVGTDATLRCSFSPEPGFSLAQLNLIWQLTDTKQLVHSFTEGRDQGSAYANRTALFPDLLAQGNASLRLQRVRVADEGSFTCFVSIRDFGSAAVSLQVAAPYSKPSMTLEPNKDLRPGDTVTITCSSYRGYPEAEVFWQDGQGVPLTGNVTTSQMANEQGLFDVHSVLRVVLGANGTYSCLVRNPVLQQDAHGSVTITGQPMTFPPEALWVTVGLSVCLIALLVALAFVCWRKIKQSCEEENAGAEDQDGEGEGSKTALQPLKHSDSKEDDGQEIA

T2: recombinant human B7H3 extra cellular domain (ECD) protein (human, UniProt Q5ZPR3 29-461)
T2 construct: also called h-B7H3 ECD; h-B7H3; not shown: C-terminal poly-histidine tag or Fc tag
T2 sequence: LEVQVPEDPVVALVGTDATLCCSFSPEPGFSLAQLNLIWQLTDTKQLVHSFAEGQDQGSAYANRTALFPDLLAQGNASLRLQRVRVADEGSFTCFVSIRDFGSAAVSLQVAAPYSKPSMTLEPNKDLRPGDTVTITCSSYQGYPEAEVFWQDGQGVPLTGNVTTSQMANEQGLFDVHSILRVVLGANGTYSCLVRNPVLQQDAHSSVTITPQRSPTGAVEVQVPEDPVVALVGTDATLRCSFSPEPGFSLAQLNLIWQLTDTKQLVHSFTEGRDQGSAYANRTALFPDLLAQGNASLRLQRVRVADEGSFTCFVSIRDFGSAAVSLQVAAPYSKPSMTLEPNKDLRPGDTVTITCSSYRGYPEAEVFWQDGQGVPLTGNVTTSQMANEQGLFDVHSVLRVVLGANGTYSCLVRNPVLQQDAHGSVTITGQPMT


How the values were obtained:
human B7H3 on A498 cells [1] = target: T1, human B7H3 on A498 cells; experiment: flow cytometry, whole cell binding to B7H3+ A498 cells, MFI
[2] = target: T2, recombinant human B7H3 extra cellular …; experiment: Octet binding assay, VHH-Fc form
human B7H3 on A498 cells [3] = target: T1, human B7H3 on A498 cells; experiment: flow cytometry, whole cell binding to B7H3+ A498 cells, MFI; remark: listed apart in the source
human B7H3 on A498 cells [4] = target: T1, human B7H3 on A498 cells; experiment: flow cytometry, whole cell binding to B7H3+ A498 cells, MFI (FITC)

Binder | EC50 (human B7H3 on A498 cells [1]) | koff [2] | kon [2] | Kd [2] | EC50 (human B7H3 on A498 cells [3]) | EC50 (human B7H3 on A498 cells [4])
5E8 VHH-Fc (Fc fusion, human, domain: Fc region including CH2 and CH3; Bivalent VHH-Fc with human IgG1 Fc, expressed in ExpiCHO) QVKLEESGGGLVQAGGSLKLSCAASGRTFSSDSMAWFREAPGKARGFVAVVSRSAGSTWYEDSVKGRFTISRDNAKNTVYLQMNSLKPEDTAVYYCAATDIATMPWLMVSSRYDYWGQGTQVTVSS[skipping human IgG1 Fc] | 451 pM | 0.000303 s⁻¹ | 582000 M⁻¹ s⁻¹ | – | – | –
14C4 VHH-Fc (Fc fusion, human, domain: Fc region including CH2 and CH3; Bivalent VHH-Fc with human IgG1 Fc, expressed in ExpiCHO) QVQLVESGGGVVQAGGSLRLSCAASGRTFSSYGMGWFRQAPRKARGFVGAVTSAGSTWYEDSVKGRFTISRDNAKNTVYLQMNSLKPEDTAVYYCAATTIATMPWLMVSSRYAYWGQGTQVTVSS[skipping human IgG1 Fc] | 473 pM | 0.000286 s⁻¹ | 431000 M⁻¹ s⁻¹ | 664 pM | – | –
19C10 VHH-Fc (Fc fusion, Bivalent VHH-Fc with human IgG1 Fc; also called parental clone) QVQLVESGGGLVQAGGSLRLSCAASGSTFSKYAMGWFRQAPRKARGFVGAVTSAGSTWYEDSVKGRFTISRDNAKNTVYLQMNSLKPEDTAVYYCAATTIATMPWLMVSSRYAYWGQGTQVTVSS[skipping human IgG1 Fc] | 356 pM | 0.000479 s⁻¹ | 457000 M⁻¹ s⁻¹ | 1050 pM | 254 pM | –
7F3 VHH-Fc (Fc fusion, human, domain: Fc region including CH2 and CH3; Bivalent VHH-Fc with human IgG1 Fc, expressed in ExpiCHO) QVQLVDSGGGLVQAGDSLRLSCAASGRPFNSWSMGWFRQAPRKARGFVGAVTSAGSTWYEDSVKGRFTISRDNAKNTVYLQMNSLKPEDTAVYYCAATTIATMPWLMVSSRYAYWGQGTQVTVSS[skipping human IgG1 Fc] | 598 pM | 0.000594 s⁻¹ | 402000 M⁻¹ s⁻¹ | 1480 pM | – | –
6H4 VHH-Fc (Fc fusion, human, domain: Fc region including CH2 and CH3; Bivalent VHH-Fc with human IgG1 Fc, expressed in ExpiCHO) QVQLQESGGDLVQPGGSLTLSCAASGGSFSSDSMGWFRQAPRKARGFVGAVTSAGSTWYEDSVKGRFTISRDNAKNTVYLQMNSLKPEDTAVYYCAATTIATMPWLMVSSRYAYWGQGTQVTVSS[skipping human IgG1 Fc] | 502 pM | 0.000438 s⁻¹ | 490000 M⁻¹ s⁻¹ | 895 pM | – | –
19c10-V4 (Fc fusion, also called 19C10-V4 VHH-Fc) EVQLLESGGGLVQPGGSLRLSCAASGSTFSKYAMGWFRQAPGKARGFVGAVTSAGSTWYEDSVKGRFTISRDNSKNTLYLQMNSLRAEDTAVYYCAATTIATMPWLMVSSRYAYWGQGTLVTVSS[skipping human IgG1 Fc] | – | – | – | – | – | 160 pM
14B12 VHH-Fc (Fc fusion, human, domain: Fc region including CH2 and CH3; Bivalent VHH-Fc with human IgG1 Fc, expressed in ExpiCHO) QVQLVESGGGVVQAGGSLRLSCAASGRTFRNFGMGWFRQAPRKARGFVGAVTSAGSTWYEDSVKGRFTISRDNAKNTVYLQMNSLKPEDTAVYYCAATTIATMPWLMVSSRYAYWGQGTQVTVSS[skipping human IgG1 Fc] | 1080 pM | 0.000847 s⁻¹ | 410000 M⁻¹ s⁻¹ | 2060 pM | – | –

More lines, now with the values ahead:

EC50 (human B7H3 on A498 cells [1]) | koff [2] | kon [2] | Kd [2] | EC50 (human B7H3 on A498 cells [3]) | EC50 (human B7H3 on A498 cells [4]) | Binder
680 pM | 0.000284 s⁻¹ | 490000 M⁻¹ s⁻¹ | 580 pM | – | – | 18B5 VHH-Fc (Fc fusion, human, domain: Fc region including CH2 and CH3; Bivalent VHH-Fc with human IgG1 Fc, expressed in ExpiCHO) QVQLQESGGGLVQAGGSLTLSCTASGITFSSDSMAWFREAPGKARGFVAVVSRSAGSTWYEDSVKGRFTISRDNAKNTVYLQMNSLKPEDTAVYYCAATDIATMPWLMVSSRYDYWGQGTQVTVSS[skipping human IgG1 Fc]
537 pM | 0.000301 s⁻¹ | 488000 M⁻¹ s⁻¹ | 617 pM | – | – | 5H8 VHH-Fc (Fc fusion, human, domain: Fc region including CH2 and CH3; Bivalent VHH-Fc with human IgG1 Fc, expressed in ExpiCHO) QVKLEESGGGQVQAGDSRTLSCVASGRTFSSDSMAWFREAPGKARGFVAVVSRSAGSTWYEDSVKGRFTISRDNAKNTVYLQMNSLKPEDTAVYYCAATDIATMPWLMVSSRYDYWGQGTQVTVSS[skipping human IgG1 Fc]
272 pM | 0.000693 s⁻¹ | 485000 M⁻¹ s⁻¹ | 1430 pM | – | – | 7H7 VHH-Fc (Fc fusion, human, domain: Fc region including CH2 and CH3; Bivalent VHH-Fc with human IgG1 Fc, expressed in ExpiCHO) QVKLEESGGGLVQAGGSLRLSCAASGSTFSKYAMGWFRQAPRKARGFVGAVTSAGSTWYEDSVKGRFTISRDNAKNTVYLQMNSLKPEDTAVYYCAATTIATMPWLMVSSRYAYWGQGTQVTVSS[skipping human IgG1 Fc]
779 pM | 0.000519 s⁻¹ | 421000 M⁻¹ s⁻¹ | 1230 pM | – | – | 21F11 VHH-Fc (Fc fusion, human, domain: Fc region including CH2 and CH3; Bivalent VHH-Fc with human IgG1 Fc, expressed in ExpiCHO) QVQLVESGGGLVQPGGSLRLSCAASGDDFFTINAIDAIGWFRQAPRKARGFVGAVTSAGSTWYEDSVKGRFTISRDNAKNTVYLQMNSLKPEDTAVYYCAATTIATMPWLMVSSRYAYWGQGTQVTVSS[skipping human IgG1 Fc]
1090 pM | 0.000451 s⁻¹ | 446000 M⁻¹ s⁻¹ | 1010 pM | – | – | 20C11 VHH-Fc (Fc fusion, human, domain: Fc region including CH2 and CH3; Bivalent VHH-Fc with human IgG1 Fc, expressed in ExpiCHO) QVQLVESGGGLVQPGGSLRLSCAASELTLDYNIGWFRQAPRKARGFVGAVTSAGSTWYEDSVKGRFTISRDNAKNTVYLQMNSLKPEDTAVYYCAATTIATMPWLMVSSRYAYWGQGTQVTVSS[skipping human IgG1 Fc]
